The other results are listed elsewhere or left out.
Columns and labels:
HSkMC = human skeletal muscle cells; assay: cytotoxicity call (relative viability < 0.9); conditions: 10 µM
HepG2 = assay: cytotoxicity call (relative viability < 0.9); conditions: 10 µM
S. aureus RN4220 = assay: growth inhibition call (relative growth <= 0.2); conditions: 50 µM

| SMILES | cytotoxicity call (HSkMC) | cytotoxicity call (HepG2) | growth inhibition call (S. aureus RN4220) |
| --- | --- | --- | --- |
| C[C@@H]1CN([C@@H](C)CO)C(=O)Cc2cc(NC(=O)C3CCCCC3)ccc2O[C@H]1CN(C)Cc1ccc(Oc2ccccc2)cc1 | inactive | inactive | inactive |
| O=C(C[C@@H]1CC[C@H](NS(=O)(=O)c2ccc(F)cc2)[C@H](CO)O1)N1CCC(Cc2ccccc2)CC1 | inactive | inactive | inactive |
| COc1ccc(NC(=O)N(C)C[C@H]2OCCCC[C@H](C)Oc3ccc(NC(=O)Nc4ccc(C(F)(F)F)cc4)cc3C(=O)N([C@@H](C)CO)C[C@H]2C)cc1 | inactive | inactive | inactive |
| N[C@H]1CCN(c2nc3c(cc2F)c(=O)c(C(=O)O)cn3-c2ccc(F)cc2F)C1 | inactive | inactive | active |
| C[C@@H]1CN([C@H](C)CO)C(=O)Cc2cc(NS(=O)(=O)c3cn(C)cn3)ccc2O[C@H]1CN(C)S(=O)(=O)c1ccc(F)cc1 | inactive | inactive | inactive |
| Cc1noc(C)c1NC(=O)Nc1ccc2c(c1)C(=O)N([C@@H](C)CO)C[C@@H](C)[C@@H](CN(C)S(=O)(=O)c1ccc(F)cc1)OCCCC[C@@H](C)O2 | inactive | inactive | inactive |
| C[C@H](CO)N1C[C@H](C)[C@H](CN(C)S(=O)(=O)c2ccc(F)cc2)Oc2ncc(C#CC3(O)CCCC3)cc2C1=O | inactive | inactive | inactive |
| C[C@H]1CN([C@@H](C)CO)C(=O)c2cc(NC(=O)Cc3ccccc3)ccc2O[C@H]1CN(C)S(C)(=O)=O | inactive | inactive | inactive |
| COc1cccc(c1)CN1C[C@]2(CCN(CC2)S(=O)(=O)C)c2c(n(c3cc(ccc23)OC)C)[C@@H]1CO | inactive | inactive | inactive |
| CCc1cccc(NC(=O)O[C@H]2[C@H](OC(=O)Nc3ccccc3-c3ccccc3)[C@H](OC(=O)Nc3ccccc3-c3ccccc3)[C@@H](OC)O[C@@H]2CO)c1 | inactive | inactive | inactive |
| Cn1cnc(S(=O)(=O)N2C[C@@H](O)COC[C@H]3O[C@@H](CC(=O)NCc4ccc(F)cc4)CC[C@@H]32)c1 | inactive | inactive | inactive |
| C[C@@H]1CCCCO[C@@H](CN(C)Cc2ccc(C(=O)O)cc2)[C@@H](C)CN([C@H](C)CO)C(=O)c2cc(NC(=O)Nc3ccc4c(c3)OCO4)ccc2O1 | inactive | inactive | inactive |
| CCNC(=O)CCC(N)C(=O)[O-].[K+] (centres undefined) | inactive | inactive | inactive |
| COc1cc2c(cc1OC)[C@]1(Nc3c-2c(-c2ccccc2)nn3-c2ccccc2)C(=O)Nc2ccccc21 | inactive | inactive | inactive |
| CN[C@H]1CC[C@@H](c2ccc(Cl)c(Cl)c2)c2ccccc21 | inactive | active | inactive |
| Cc1ccc(S(=O)(=O)Nc2ccc3c(c2)C(=O)N([C@@H](C)CO)C[C@@H](C)[C@H](CN(C)C(=O)Nc2cccc4ccccc24)OCCCC[C@@H](C)O3)cc1 | inactive | inactive | inactive |
| Cc1noc(C)c1NC(=O)Nc1ccc2c(c1)C(=O)N([C@H](C)CO)C[C@@H](C)[C@@H](CN(C)S(=O)(=O)c1ccc(F)cc1)OCCCC[C@@H](C)O2 | inactive | inactive | inactive |
| C[C@H]1CN([C@@H](C)CO)S(=O)(=O)c2ccc(C#CCN(C)C)cc2O[C@H]1CN(C)C | inactive | inactive | inactive |
| COc1ccc(S(=O)(=O)Nc2cccc3c2O[C@H](CN(C)S(=O)(=O)c2ccc(F)cc2)[C@H](C)CN([C@@H](C)CO)C3=O)cc1 | inactive | inactive | inactive |
| COc1ccc(S(=O)(=O)N(C)C[C@@H]2Oc3ccc(NC(=O)Cc4ccccc4)cc3C(=O)N([C@H](C)CO)C[C@H]2C)cc1 | inactive | inactive | inactive |
| Cc1noc(C)c1NC(=O)N(C)C[C@@H]1OCCCC[C@@H](C)Oc2ccc(NS(=O)(=O)c3ccc(Cl)cc3)cc2C(=O)N([C@H](C)CO)C[C@@H]1C | inactive | inactive | inactive |
| C[C@H]1CCCCO[C@H](CN(C)C(=O)CCC(F)(F)F)[C@@H](C)CN([C@@H](C)CO)C(=O)c2cc(NC(=O)c3ccccc3)ccc2O1 | inactive | inactive | inactive |
| C[C@@H]1CCCCO[C@@H](CN(C)Cc2ccc(C(F)(F)F)cc2)[C@H](C)CN([C@@H](C)CO)C(=O)c2cc(NC(=O)Cc3ccccc3)ccc2O1 | inactive | inactive | inactive |
| C=CCOC(=O)[C@H]1[C@@H]2C(=O)O[C@@H](c3ccccc3)[C@@H](c3ccccc3)N2[C@@H](c2ccc(OCCOC(=O)[C@H]3C[C@H]4C(=O)N[C@@H](CC(C)C)C(=O)N4[C@H]3c3cccc(OCCO)c3)cc2)[C@]12C(=O)Nc1ccccc12 | inactive | inactive | inactive |
| C[C@@H]1CCCCO[C@H](CN(C)C(=O)Nc2cccc3ccccc23)[C@@H](C)CN([C@@H](C)CO)C(=O)c2cc(NC(=O)CCCN(C)C)ccc2O1 | inactive | inactive | inactive |
| O=C(c1ccncc1)N1C[C@@H]2[C@H](c3ccccc31)[C@H](CO)N2C(=O)CN1CCOCC1 | inactive | inactive | inactive |
| O=C(N[C@H](c1ccc(F)cc1)c1ccc2ccccc2n1)C1CCN(Cc2cccc(C(F)(F)F)c2)CC1 | active | active | inactive |

| SMILES | cytotoxicity call (HSkMC) | cytotoxicity call (HepG2) | growth inhibition call (S. aureus RN4220) |
| --- | --- | --- | --- |
| C[C@@H]1CN([C@H](C)CO)C(=O)c2cc(-c3cccc(C#N)c3)cnc2O[C@@H]1CN(C)C(=O)C1CCOCC1 | inactive | inactive | inactive |
| C[C@@H]1CN([C@@H](C)CO)C(=O)c2cc(NC(=O)Nc3ccc(F)cc3)ccc2O[C@@H](C)CCCCO[C@H]1CN(C)CC1CC1 | inactive | inactive | inactive |
| C[C@@H]1CN([C@@H](C)CO)S(=O)(=O)c2ccc(C#CC(C)(C)O)cc2O[C@@H]1CN(C)C(=O)C1CCCCC1 | inactive | inactive | inactive |
| C[C@H]1CN([C@@H](C)CO)C(=O)c2cc(NC(=O)CCCCCC(=O)Nc3ccccc3N)ccc2O[C@H]1CN(C)Cc1ccc(Cl)c(Cl)c1 | inactive | inactive | inactive |
| COC(=O)CCC(=O)OC | inactive | inactive | inactive |
| C[C@H](O)C#Cc1ccc2c(c1)O[C@@H](CN(C)C(=O)Nc1ccccc1)[C@@H](C)CN([C@H](C)CO)S2(=O)=O | inactive | inactive | inactive |
| Cc1ccc(S(=O)(=O)Nc2ccc3c(c2)C(=O)N([C@@H](C)CO)C[C@H](C)[C@@H](CN(C)Cc2ccc(Cl)c(Cl)c2)O3)cc1 | active | inactive | inactive |
| CC(C)NC(=O)N(C)C[C@@H]1Oc2cc(C#Cc3ccccn3)ccc2S(=O)(=O)N([C@@H](C)CO)C[C@@H]1C | inactive | inactive | inactive |
| COC(=O)CCCCCCC(=O)Nc1ccc([C@H]2O[C@@H](CSc3nc(-c4ccccc4)c(-c4ccccc4)o3)C[C@H](c3ccc([N+](=O)[O-])cc3)O2)cc1 | inactive | inactive | inactive |
| C[C@H](CO)N1C[C@H](C)[C@@H](CN(C)C(=O)Nc2cccc3ccccc23)Oc2ccc(NC(=O)Nc3ccc(F)cc3)cc2CC1=O | inactive | inactive | inactive |
| C[C@@H]1CCCCO[C@@H](CN(C)S(=O)(=O)c2ccc(Cl)cc2)[C@H](C)CN([C@@H](C)CO)C(=O)c2cc(NC(=O)Nc3ccc(F)cc3)ccc2O1 | inactive | inactive | inactive |
| C[C@H](CO)N1C[C@H](C)[C@@H](CN(C)Cc2ccc(F)cc2)Oc2ncc(C#Cc3cccnc3)cc2C1=O | inactive | inactive | inactive |
| COc1ccccc1S(=O)(=O)N(C)C[C@H]1Oc2cc(C#CCC(C)C)ccc2S(=O)(=O)N([C@H](C)CO)C[C@@H]1C | inactive | inactive | inactive |
| CCCC1CC(C(=O)NC(C(C)Cl)C2OC(SC)C(O)C(O)C2O)N(C)C1.Cl (centres undefined) | inactive | inactive | active |
| Cc1noc(C)c1S(=O)(=O)N(C)C[C@@H]1Oc2ccc(NC(=O)NC(C)C)cc2CC(=O)N([C@H](C)CO)C[C@@H]1C | inactive | inactive | inactive |
| C[C@@H]1CN([C@@H](C)CO)C(=O)c2cc(NC(=O)Cc3cn(C)c4ccccc34)ccc2O[C@@H]1CN(C)Cc1ccc(C(=O)Nc2ccccc2N)cc1 | inactive | inactive | inactive |
| CCC1(C)CC(=O)NC1=O (centres undefined) | inactive | inactive | inactive |
| O=C(C[C@H]1CC[C@@H](NC(=O)c2cccnc2)[C@H](CO)O1)NCCN1CCCCC1 | inactive | inactive | inactive |
| CCCCN[C@H]1CCS(=O)(=O)C1 | inactive | inactive | inactive |
| O=C(C[C@H]1C[C@@H]2c3cc(NC(=O)Nc4ccc(C(F)(F)F)cc4)ccc3O[C@@H]2[C@H](CO)O1)NCCc1ccccc1 | inactive | inactive | inactive |
| Nc1cc(-c2ccncc2)c[nH]c1=O | inactive | inactive | inactive |
| COc1ccc(NC(=O)Nc2ccc3c(c2)CC(=O)N([C@@H](C)CO)C[C@H](C)[C@H](CN(C)Cc2ccc(C(F)(F)F)cc2)O3)cc1 | active | active | inactive |
| COc1ccc(CN(C)C[C@@H]2OCCCC[C@H](C)Oc3ccc(NS(=O)(=O)c4ccc(C)cc4)cc3C(=O)N([C@H](C)CO)C[C@@H]2C)cc1 | inactive | inactive | inactive |
| C[C@H]1CN([C@@H](C)CO)C(=O)c2cc(NC(=O)C3CC3)ccc2O[C@H]1CN(C)S(=O)(=O)c1ccc(F)cc1 | inactive | inactive | inactive |
| COCC(=O)N(C)C[C@@H]1Oc2cc(C#Cc3cccnc3)ccc2S(=O)(=O)N([C@H](C)CO)C[C@H]1C | inactive | inactive | inactive |
| COc1ccc(S(=O)(=O)N(C)C[C@H]2OCCCC[C@@H](C)Oc3ccc(NC(=O)NC4CCCCC4)cc3C(=O)N([C@H](C)CO)C[C@@H]2C)cc1 | inactive | inactive | inactive |

Reference: the antibiotic and cytotoxicity screens of Wong et al. (2023)
